Data on 14 molecules can be found in PMC12136788.

This is one part of the list.

The labels stand for the following.
T1: UNK ZnF1-3 (human, UniProt Q9C0B0 31-174)
T1 sequence: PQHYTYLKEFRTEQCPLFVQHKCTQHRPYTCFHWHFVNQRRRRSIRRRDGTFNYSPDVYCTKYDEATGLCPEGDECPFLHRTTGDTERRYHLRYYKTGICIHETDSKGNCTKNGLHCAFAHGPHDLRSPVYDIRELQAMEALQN

B1: chr3:8560387:8560388:+_ENSMUSG00000027500_ENSMUST00000029002|perfect_dup|FALSE|FALSE (ssRNA)
RNA: GGGAGUUCUACAGUCCGACGAUCCAUACACUUCCCAUACUGAUAUCGCAUGAUCCAUUAUAAUAUAGGCAGGGGGAUUUACUAUGGGAGGGGCUUGCCAUACCCGCCAUUGCUUCAGCCAGACAGUUCAACCUGCAGUUCCUUCAACAGAGGAUUGAGCAUCA
B2: 119215667_119222031_344_CDS_ENSG00000111875_ENST00000229595|human|control|control (ssRNA)
RNA: GGGAGUUCUACAGUCCGACGAUCAUGCCUUCCUGCGGGAACAGGACCCACUAAAACAGAGUCUAAAACUUGAUCGUAUUCUUCACUUUCUGCAGAGCCCACAUAGAUAAUUUUCCAUUCCAAGUCUUCAGACAGGUCCUCGAUCAACAGAGGAUUGAGCAUCA
B3: chr10:70525781:70525782:+_ENSG00000060339_ENST00000535016|hu_hu|FALSE|FALSE (ssRNA)
RNA: GGGAGUUCUACAGUCCGACGAUCUGAAUGUUCUUUAUUAUCCUCUAAUCUGUAGUCCAAUAGGACACUCAAAGACAUGAUGCUACAAUCAAACUUGCCACUUUUUGCAGCCCAAUUUGGAUGUACAAUGAUGGCCGGUUCAUCCAACAGAGGAUUGAGCAUCA
B4: 18274065_18293492_5945_CDS_ENSG00000243156_ENST00000441493|human|control|control (ssRNA)
RNA: GGGAGUUCUACAGUCCGACGAUCGCCUGCUUCGCCCCGGAGCGCCUUCUCCACAGCCACGCCCCUUUCCUCCAGCCGCCGCUGCCUCUCCUCCACCUGCUGCAGCUGCCGCUGGAUGAUCUGGGCUCGAUGCAGCCGCUUAAGCAACAGAGGAUUGAGCAUCA
B5: chr2:136389457:136389458:+_ENSG00000048991_ENST00000409478|hu_mus|FALSE|FALSE (ssRNA)
RNA: GGGAGUUCUACAGUCCGACGAUCCUGAUCAACAUUGUGGUCUAAUCCAAAGUAGGCAGCCACUCUGUGUAACAGCAUCCUGUGGUAAGAUGUCAUCGGGGGAAACUUCUUACGUGGGGACUCAUUAUUACCAAUGAAAUCUAACAACAGAGGAUUGAGCAUCA
B6: chr6:142515020:142515021:-_ENSMUSG00000030247_ENSMUST00000032374|mus_mus|FALSE|FALSE (ssRNA)
RNA: GGGAGUUCUACAGUCCGACGAUCCCCUCCAAACCCAAUGGUCACUUGAACCUCAAUGGAGAAGAGAAACGCAGACGUGAAUGACCUGACAUUGGUCACACAGACAGCGGACUCCAGGCCACUCUUCUCCAUGGUGCCUUUCUCCAACAGAGGAUUGAGCAUCA
B7: chr11:118370577:118370578:+_ENSG00000118058_ENST00000534358|hu_mus|FALSE|FALSE (ssRNA)
RNA: GGGAGUUCUACAGUCCGACGAUCCUGGUAUCCAAUAGGAAAGAGUUUAUCUUCACAGUCAGAGAGGUCAUUCAGGAUUCCCAAACAGUCGAUUGUCAUUGAGCCUAUCAUCAUGUGGAUAUUUUCUGGUUCCAAGCCAUUAAGCAACAGAGGAUUGAGCAUCA
B8: chr4:57314706:57314707:+_ENSG00000128050_ENST00000264221|hu_mus|hu_hu_hu_mus_True|38_58 (ssRNA)
RNA: GGGAGUUCUACAGUCCGACGAUCCAGAAUUUCAAAAAUAGCUUGUGUGGCAUGACUCAUGAUGUCCACUUCAGUCUGGCCUAUAAGAAGGCCAGCAAAGCAAAAUUUUGCAGCAAUGAGUUGCUCCUCAGACCACUGUGGAUCCAACAGAGGAUUGAGCAUCA
B9: chr11:87793471:87793472:-_ENSMUSG00000020483_ENSMUST00000020775|mus_mus|FALSE|FALSE (ssRNA)
RNA: GGGAGUUCUACAGUCCGACGAUCAAUGGGCUGGGGAAAAAAAAAUAGCUAGAUUUCCCCACCCCUUACAGUGUCAACCCUAUGCGAGUUCUGAAUGUGAUUCAUAAGAAUCAGCAGCUCAAUUGGCAAUGACAACCCCCACCCCAACAGAGGAUUGAGCAUCA
B10: 127869695_127869815_373_3pUTR_ENSMUSG00000046096_ENSMUST00000060175|mouse|control|control (ssRNA)
RNA: GGGAGUUCUACAGUCCGACGAUCUGUAGCUUCUCUUCGCCAGUGGGAAGCCACCAGCAAACCACAUGUGACAGUCAAGGAAAUGAUUCCCAUGAUGAUAAAAAACAGGGUGGUGACCCAUUCUGGGGGAAGCCGAGGAGGGAUCAACAGAGGAUUGAGCAUCA
B11: chr1:39494447:39494448:+_ENSG00000168653_ENST00000372967|hu_mus|FALSE|FALSE (ssRNA)
RNA: GGGAGUUCUACAGUCCGACGAUCGCACCGAGCGGCGUUCUUAUAGGGCUGUUCUGCGCUUAGGAACAUAAAGUGCCGGUCCAGGCUGAUGCCCAGCUUUUUCUGUAUGUCAAGGAAAGGCAUGGCUCUGCAGUGCCCUUGUCACAACAGAGGAUUGAGCAUCA
B12: chr1:137268451:137268452:-_ENSMUSG00000041889_ENSMUST00000041240|mus_mus|FALSE|FALSE (ssRNA)
RNA: GGGAGUUCUACAGUCCGACGAUCUGGCCUGAUGACUAGGAGACCCUUGCCCACCCUCAGGGCUAGAUGCAGGUACAGGACGGGGACUCUCCCAAAAAAAAAAAAAACCCAAAAAACGACAUCACGGAAGGGACAGCAGAGCCACAACAGAGGAUUGAGCAUCA
B13: chr15:23003119:23003120:+_ENSG00000068793_ENST00000560848|hu_hu|FALSE|FALSE (ssRNA)
RNA: GGGAGUUCUACAGUCCGACGAUCUUUUUAGAUCGAAAAGCACCCCCUUUAACAGGUACAGAGAUACUGAAAAAUAGUCCCUAAAAAUCUCACUAAAUAGUUUACGGAGAGAAAGGCAUGCCAUGUUGAGUUACGGAGUGCAGCCAACAGAGGAUUGAGCAUCA
B14: chr15:31387667:31387668:-_ENSMUSG00000039100_ENSMUST00000090227|mus_mus|motif|central (ssRNA)
RNA: GGGAGUUCUACAGUCCGACGAUCUGGGCCCUCAGACCUUUCCAACUAUGGGUUUAAUACUCCAUGGAACUCUUUACAGUCGGUGAAAGCUUCUAGCACUAUCCUUAUAAUACACCUUUACCAUUAAACACUUGAAUGACGUACCAACAGAGGAUUGAGCAUCA

The target in this test is T1, UNK ZnF1-3. As to the kind of experiment: nsRBNS (natural sequence RNA bind-n-seq); RBNS binding buffer (assumed for nsRBNS): 25 mM Tris pH 7.5, 150 mM KCl, 3 mM MgCl2, 0.01% Triton X-100, 500 ug/ml BSA, 20 U/ml SUPERase-In, 4 C; UNK is unkempt and MSI1 is Musashi-1; names of the RNAs are library labels; protein concentration not given here; high values mean tight binding.
The molecule B1 had a binding signal of 1.63 enrichment R.
For B2, the binding signal turned out to be 1.29 enrichment R.
For B3 the value was 0.662 enrichment R.
Take B4: the binding signal came out at 0.605 enrichment R.
For B5 the value was 0.711 enrichment R.
For the molecule B6, the binding signal amounted to 0.683 enrichment R.
In the case of B7, the binding signal was determined as 1.73 enrichment R.
B8 yielded a binding signal of 0.965 enrichment R.
B9: the binding signal stood at 1.15 enrichment R.
Take B10: the binding signal came to 0.892 enrichment R.
Molecule B11 registered a binding signal of 0.806 enrichment R.
With B12, the binding signal came to 1.58 enrichment R.
B13 gave a binding signal of 1.42 enrichment R.
B14 yielded a binding signal of 0.722 enrichment R.
